# Values joined by “and” are separate entries in the source; they are usually repeats but may differ in a detail not shown here. Equal values may be shown once. Inconclusive results, whose numbers are uncertain, are shown with a selection of clear calls. A call without a number means that no potency is given here. For part of these data: Where the call is inconclusive, the potency comes from a doubtful curve fit. More than one record can exist for a structure, and the calls need not agree. Active and inactive are the calls of the source. Unless noted, calls come from the whole dose curve; as a rule, active = well fitted curve in the direction sought with a large enough effect in the repeat runs; inconclusive = weak or mixed curves; inactive = no such curve, though single readings can be large; an effect the other way counts as inactive or inconclusive.
# Tests used:
# [1] = A CellTox Green Cytotoxicity Assay to monitor cytotoxicity in HEK293 cells - 40 hour (AID 1224871); note: nearly all actives have a fitted effect of over 45% in size; note: potency is the fitted concentration of half-maximal effect
# In short: (§1)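 Homogeneous no-lysis format: HEK293 cell suspension mixed with CellTox Green reagent, seeded, incubated 5 h at 37 C/5% CO2, then dosed by pintool with compound in DMSO.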
# [2] = qHTS RealTime-Glo MT Cell Viability Assay in HEK293 cells - 40 hour (AID 1224874); conditions: RealTime-Glo luminescence; max response: stronger effect = lower value; note: nearly all actives have a fitted effect of over 50% in size; note: potency is the fitted concentration of half-maximal effect
# In short: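 Measured as luminescence from the same continuously cultured HEK293 wells at successive time points (0, 8, 16, 24, 32, 40 h) after compound addition. Reagent present from seeding; dosing at 5 h; incubation 37 C.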
# [3] = molecular target: Aryl hydrocarbon receptor (Homo sapiens) (UniProt P35869); test: qHTS assay to identify small molecule that activate the aryl hydrocarbon receptor (AhR) signaling pathway (AID 743085); note: nearly all actives have a fitted effect of over 15% in size; note: potency is the fitted concentration of half-maximal effect
# UniProt P35869, sequence (P35869 whole entry, looked up): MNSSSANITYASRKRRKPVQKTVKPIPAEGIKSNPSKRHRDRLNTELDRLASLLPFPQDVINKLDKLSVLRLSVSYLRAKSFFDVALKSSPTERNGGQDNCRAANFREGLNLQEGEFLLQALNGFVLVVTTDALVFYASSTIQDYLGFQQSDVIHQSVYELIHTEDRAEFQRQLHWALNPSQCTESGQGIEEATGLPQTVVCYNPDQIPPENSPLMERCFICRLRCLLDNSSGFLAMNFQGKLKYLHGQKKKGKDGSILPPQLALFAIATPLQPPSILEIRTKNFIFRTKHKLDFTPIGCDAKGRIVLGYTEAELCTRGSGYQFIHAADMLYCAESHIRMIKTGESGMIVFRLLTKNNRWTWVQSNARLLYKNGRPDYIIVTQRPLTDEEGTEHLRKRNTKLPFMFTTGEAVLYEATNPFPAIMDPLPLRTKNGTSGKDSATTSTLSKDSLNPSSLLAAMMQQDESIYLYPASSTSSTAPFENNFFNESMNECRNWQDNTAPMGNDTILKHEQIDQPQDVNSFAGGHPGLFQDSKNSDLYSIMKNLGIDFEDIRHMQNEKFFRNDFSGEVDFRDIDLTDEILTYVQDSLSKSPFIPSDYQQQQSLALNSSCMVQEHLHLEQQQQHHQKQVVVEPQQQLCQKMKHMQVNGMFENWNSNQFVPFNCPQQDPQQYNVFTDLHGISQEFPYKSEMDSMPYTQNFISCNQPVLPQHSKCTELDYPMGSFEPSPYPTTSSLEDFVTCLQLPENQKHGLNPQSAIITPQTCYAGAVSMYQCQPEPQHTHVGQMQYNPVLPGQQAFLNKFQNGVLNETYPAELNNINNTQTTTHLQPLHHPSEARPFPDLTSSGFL
# In short: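 Reporter assay in engineered HepG2 line HG2L7.5c1, whose plasmid carries twenty dioxin responsive elements upstream of firefly luciferase. Treatment lasted 24 h at 37C; ONE-Glo luminescence gauged induction.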
# [4] = qHTS assay to identify small molecule agonists of the hypoxia (HIF-1) signaling pathway - cell viability counter screen (AID 1224844; calls by dose curve; note: nearly all actives have a fitted effect of over 50% in size; note: potency is the fitted concentration of half-maximal effect)
# In short: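 Same wells as the HIF-1 reporter screen; ME-180 cells carrying HRE-bla, 17 hr treatment at 37C; CellTiter-Glo luminescence read after 30 min at room temperature.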
# [5] = A CellTox Green Cytotoxicity Assay to monitor cytotoxicity in HEK293 cells - 8 hour (AID 1224884); note: nearly all actives have a fitted effect of over 35% in size; note: potency is the fitted concentration of half-maximal effect
# In short: as §1
# [6] = qHTS assay to identify small molecule antagonists of the estrogen receptor alpha (ER-alpha) signaling pathway using the BG1 cell line (AID 743080; calls by dose curve;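 note: BG1 cells stimulated with 17beta-estradiol alongside compound; nearly all actives have a fitted effect of over 25% in size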; note: potency is the fitted concentration of half-maximal effect); conditions: BG1Luc4E2 ERE-luciferase antagonist mode, luminescence; activity change, negative = inhibition: at 70.3 µM (top of the series) unless noted
# In short: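 Luminescence from a 4×ERE-luciferase reporter in BG1-Luc-4E2 cells served as read-out. Cells, pre-cultured 5 days in stripped-serum phenol-red-free medium, were exposed to compound with 17beta-estradiol co-stimulation for 21.5 h at 37 C.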
# [7] = qHTS assay to identify aromatase inhibitors - cell viability counter screen (AID 743084); conditions: MCF-7 aro ERE viability, CellTiter-Fluor, 24 h; activity change, negative = cytotoxicity: at 70.3 µM (top of the series) unless noted;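 note: cells stimulated with testosterone during compound exposure; nearly all actives have a fitted effect of over 55% in size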; note: potency is the fitted concentration of half-maximal effect
# [8] = qHTS assay to identify small molecule antagonists of the retinoic acid receptor (RAR) signaling pathway (AID 1159552; note: nearly all actives have a fitted effect of over 50% in size)
# In short: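 Overnight-plated C3RL4 reporter cells get compound, then retinol to 1 uM final; plates sit 6 hr at 37 C, 5% CO2. A luciferase reagent is added and light output recorded after 30 min at room temperature.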
# [9] = qHTS assay to identify small molecule antagonists of the estrogen receptor beta (ER-beta) signaling pathway - cell viability counter screen (AID 1259382); note: nearly all actives have a fitted effect of over 55% in size; note: potency is the fitted concentration of half-maximal effect;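 for activity change, negative = cytotoxicity: HEK293T cells carrying ER-beta-UAS-bla reporter stimulated with estradiol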
# In short: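 HEK293T ER-beta-UAS-bla, 2% charcoal-stripped FBS; compounds + 1nM E2 16 hr 37C; CellTiter-Glo luminescence, 30 min RT.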
# [10] = qHTS assay to identify small molecule antagonists of the estrogen related receptor (ERR) signaling pathway from Tox21 library - cell viability counter screen (AID 1224834); note: nearly all actives have a fitted effect of over 30% in size; note: potency is the fitted concentration of half-maximal effect
# In short: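 In this quantitative HTS format, ERR cells receive compounds in DMSO and are incubated for 17.5 h at 37 C. Live-cell protease activity is then detected with CellTiter-Fluor.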
# [11] = qHTS assay to identify small molecule that activate the aryl hydrocarbon receptor (AhR) signaling pathway - cell viability counter screen (AID 743086); note: nearly all actives have a fitted effect of over 45% in size; note: potency is the fitted concentration of half-maximal effect;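 for viability change, negative = cytotoxic: HepG2 liver cells carrying the AhR DRE luciferase reporter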
# In short: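 HepG2-AhR-luc (HG2L7.5c1) cells, 4000/well, treated 24 h at 37 C with compound; viability measured as CellTiter-Fluor fluorescence after 30 min in the same wells as the luciferase read.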
# [12] = qHTS assay to identify small molecule antagonists of the androgen receptor (AR) signaling pathway using the MDA cell line - cell viability counter screen (AID 743041; note: nearly all actives have a fitted effect of over 45% in size; note: potency is the fitted concentration of half-maximal effect); conditions: MDA-kb2 viability, CellTiter-Fluor, 16 h, cells co-treated with R1881 androgen agonist; viability change, negative = cytotoxic: at 70.3 µM (top of the series)
# In short: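 Cytotoxicity counter screen: MDA-kb2 AR-luc cells, compound + R1881, 16 h, 37C, 0% CO2; CellTiter-Fluor added at 15.5 h, fluorescence read after 30 min.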
# [13] = qHTS assay to identify small molecule antagonists of the glucocorticoid receptor (GR) signaling pathway - cell viability counter screen (AID 720693); conditions: GR-bla HeLa viability, CellTiter-Glo luminescence, 18 h, with 5 nM dexamethasone present; viability change, negative = cytotoxic: at 58.5 µM (top of the series); note: nearly all actives have a fitted effect of over 55% in size; note: potency is the fitted concentration of half-maximal effect
# [14] = qHTS assay for small molecule disruptors of the mitochondrial membrane potential - cell viability (AID 720634; calls by dose curve; note: nearly all actives have a fitted effect of over 20% in size; note: potency is the fitted concentration of half-maximal effect;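 for activity change, negative = cytotoxicity: human HepG2 liver cancer cells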)
# In short: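 Same-well counter-screen: following the MMP dye addition, CellTiter-Glo was added to 1 hr compound-treated HepG2 cells and luminescence read after 30 min at room temperature.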
# [15] = qHTS assay to identify small molecule agonists of the TGF-beta/Smad signaling pathway - cell viability counter screen (AID 1346829); note: nearly all actives have a fitted effect of over 45% in size; note: potency is the fitted concentration of half-maximal effect; for activity change, negative = cytotoxicity: top concentration of the series differs between compounds
# In short: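 Luminescence from CellTiter-Glo, read after a 30 min room-temperature incubation, gives cell viability of SBE-bla HEK 293T cells treated 5 hr with compounds at 37 C.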
# [16] = A CellTox Green Cytotoxicity Assay to monitor cytotoxicity in HepG2 cells - 40 hour (AID 1224879); note: nearly all actives have a fitted effect of over 40% in size; note: potency is the fitted concentration of half-maximal effect
# In short: (§2)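 Fluorescent DNA-binding dye, 600 HepG2 cells/well, 5 h preincubation then compound in DMSO; same plates read at 0–40 h, 37 C.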
# [17] = molecular target: Aromatase (Homo sapiens) (UniProt P11511); test: qHTS assay to identify aromatase inhibitors (AID 743083); note: nearly all actives have a fitted effect of over 55% in size
# UniProt P11511, sequence (P11511 whole entry, looked up): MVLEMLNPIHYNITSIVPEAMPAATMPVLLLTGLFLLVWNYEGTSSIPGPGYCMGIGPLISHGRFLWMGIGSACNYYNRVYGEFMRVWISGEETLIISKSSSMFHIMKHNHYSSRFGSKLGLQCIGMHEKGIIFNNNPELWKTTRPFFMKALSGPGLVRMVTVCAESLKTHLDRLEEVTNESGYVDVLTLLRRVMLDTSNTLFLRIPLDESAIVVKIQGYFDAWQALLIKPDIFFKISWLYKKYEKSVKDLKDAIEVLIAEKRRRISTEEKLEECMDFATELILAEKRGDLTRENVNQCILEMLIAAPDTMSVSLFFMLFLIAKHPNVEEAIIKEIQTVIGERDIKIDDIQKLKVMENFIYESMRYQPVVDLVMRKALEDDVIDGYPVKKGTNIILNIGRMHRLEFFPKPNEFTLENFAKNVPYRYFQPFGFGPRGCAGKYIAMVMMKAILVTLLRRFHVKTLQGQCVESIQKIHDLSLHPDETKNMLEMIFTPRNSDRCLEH
# [18] = qHTS assay to identify small molecule agonists of the sonic hedgehog signaling (Shh) pathway - cell viability counter screen (AID 1259366); note: nearly all actives have a fitted effect of over 50% in size; note: potency is the fitted concentration of half-maximal effect
# In short: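 Stable Gli1-Luc NIH/3T3 clone, 2,000 cells/well. Compound exposure 24hr at 37C. Read-out: CellTiter-Fluor fluorescence.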
# [19] = A CellTox Green Cytotoxicity Assay to monitor cytotoxicity in HepG2 cells - 24 hour (AID 1224878)
# In short: as §2
# [20] = qHTS assay to identify small molecule antagonists of the sonic hedgehog signaling (Shh) pathway - cell viability counter screen (AID 1259367)
# In short: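 Fluorescence read-out (CellTiter-Fluor, 1 hr at 37C) taken after 23 hr compound treatment of 3T3 Gli1-Luc cells stimulated with conditioned medium. Cells were seeded at 2,000 per well and pre-incubated 4 hr.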
# Tags give direction and shape of the fitted curve.
structure (smiles),measurement,setting,value
CC(=O)OCc1ccccc1,Potency,[1],inactive
same,max response,[2],inactive: -41.8% and inactive: -21%
C=C(C)C(=O)OCCN(C)C,Potency,[3],inactive
O=c1c2ccccc2nnn1CCl,Potency,[4],inactive
same,Potency,[5],inactive
C[C@H]1C[C@H]2[C@@H]3CCC4=CC(=O)C=C[C@]4(C)[C@@]3(F)[C@@H](O)C[C@]2(C)[C@@]1(O)C(=O)COP(=O)(O)O,Potency,[6],"inconclusive: 0.556 µM [rising, partial curve]"
CCCCC(CC)COC(=O)c1ccc(C(=O)OCC(CC)CCCC)cc1 (stereo not given),Potency,[7],"inconclusive: 38.1 µM [rising, full curve, poor fit]"
C1=Cc2ccccc2C1,Potency,[8],inactive
same,Potency,[5],"inconclusive: 61.6 µM [activator, single point]"
same,Potency,[9],inactive
CCCCCCCCCCCCS(=O)(=O)Cl,"viability change, negative = cytotoxic",[10],inactive: -1.38% [at 19 µM]
same,Potency,[9],"inconclusive: 16.4 µM [cytotoxic, single point]"
CCC1C(=O)OCC1Cc1cncn1C (stereo not given),Potency,[11],inactive
COc1ccc2nc(SCc3ncc(C)c(OC)c3C)[nH]c2c1,Potency,[2],"inconclusive: 16.9 µM [cytotoxic, partial curve]"
same,Potency,[9],inactive
CCCCCCCCC(=O)OCC,Potency,[12],"inconclusive: 61.1 µM [rising, partial curve, poor fit]"
CCCC1CCCC(=O)O1 (stereo not given),Potency,[13],inactive
C[Si](C)=O,"activity change, negative = cytotoxicity",[14],inactive: 4.91% [at 8.08 µM]
CCc1occc(=O)c1O,Potency,[7],inactive
O=S(=O)(O)c1cc(O)c2ccc(Nc3ccccc3)cc2c1,Potency,[12],inactive
same,Potency,[10],"inconclusive: 68.6 µM [cytotoxic, partial curve, poor fit]"
same,Potency,[1],inactive
CCOC(=O)C(=O)OCC,Potency,[7],"inconclusive: 77 µM [rising, partial curve, poor fit]"
same,max response,[2],inactive: 6.27%
Cc1cc(C)n(CO)n1,Potency,[15],"inconclusive: 12.3 µM [cytotoxic, single point]"
CCOC(C)(C)C,Potency,[3],inactive
same,Potency,[9],inactive
C=C[Si](C)(C)O[Si](C)(C)C=C,Potency,[4],inactive
same,Potency,[16],inactive
O=C1CCCCO1,Potency,[17],inactive
CC/C=C\CC/C=C/C(OCC)OCC,Potency,[1],inactive
O=C1c2ccccc2C(=O)c2c(Cl)cccc21,Potency,[4],"inconclusive: 29.1 µM [cytotoxic, single point]"
same,Potency,[18],inactive
same,Potency,[15],"inconclusive: 3.27 µM [cytotoxic, full curve, poor fit]"
N#CCc1ccccc1[N+](=O)[O-],Potency,[3],"inconclusive: 38.1 µM [activator, partial curve]"
same,Potency,[10],inactive
CC1=CC(=O)CC(C)(C)C1=O,Potency,[6],inactive
CCCCN(CCO)CCO,Potency,[3],inactive
CC(C)C(=O)OCc1ccccc1,Potency,[1],"inconclusive: 54.9 µM [activator, single point]"
same,Potency,[19],"inconclusive: 54.9 µM [activator, single point]"
same,Potency,[16],"inconclusive: 54.9 µM [activator, single point]"
same,Potency,[5],"inconclusive: 54.9 µM [activator, single point]"
same,Potency,[9],inactive
OC(CCN1CCCCC1)(c1ccccc1)C1CC2C=CC1C2 (stereo not given),Potency,[13],"inconclusive: 1.07 µM [rising, single point]"
same,Potency,[12],"inconclusive: 29.8 µM [cytotoxic, single point] and inconclusive: 29.8 µM [cytotoxic, partial curve, poor fit]"
same,Potency,[11],"inconclusive: 29.8 µM [falling, partial curve, poor fit]"
same,Potency,[1],"inconclusive: 26.8 µM [activator, single point]"
same,Potency,[18],"inconclusive: 6.68 µM [cytotoxic, full curve, poor fit]"
CN1CCC(OC(c2ccccc2)c2ccccc2)CC1,Potency,[7],inactive
same,Potency,[3],inactive
COC(=O)c1cccc(Cl)c1,Potency,[20],"inconclusive: 75.9 µM [cytotoxic, partial curve, poor fit]"
CN(C)CC[C@@H](c1ccc(Br)cc1)c1ccccn1,Potency,[10],inactive
same,Potency,[5],inactive
same,Potency,[15],"inconclusive: 6.74 µM [cytotoxic, single point]"
CN(C)CCOC(=O)COc1ccc(Cl)cc1,Potency,[14],inactive
Oc1cc(O)c2c(c1)O[C@H](c1ccc(O)c(O)c1)[C@H](O)C2,Potency,[4],"inconclusive: 12 µM [cytotoxic, full curve]"
same,Potency,[5],inactive
CC1=CC[C@@H](C(C)(C)O)CC1,Potency,[10],"inconclusive: 0.611 µM [cytotoxic, single point]"
COc1ccc(Cl)cc1C,Potency,[2],"inconclusive: 65.6 µM [rising, single point]"
C=C(C)C(=O)NCCC[N+](C)(C)C,Potency,[14],inactive
Clc1cccnc1,Potency,[10],inactive
CC(=O)CC(C)=O,Potency,[3],inactive
CN/C(=C\[N+](=O)[O-])NCCSCc1csc(CN(C)C)n1,Potency,[17],inactive
same,Potency,[4],inactive
NS(=O)(=O)c1cc2c(cc1C(F)(F)F)NCNS2(=O)=O,Potency,[5],inactive
CCCCCCCCCCCCI,Potency,[4],"inconclusive: 39.1 µM [cytotoxic, partial curve]"
same,Potency,[5],"inconclusive: 12.4 µM [activator, single point]"
same,Potency,[18],inactive
same,Potency,[15],inactive
CCC(=O)Oc1ccc2c(c1)CC[C@@H]1[C@@H]2CC[C@@]2(C)[C@H]1C[C@@H](OC(=O)CC)[C@@H]2OC(=O)CC,Potency,[19],"inconclusive: 30.1 µM [activator, partial curve, poor fit]"
same,Potency,[16],inactive
C=C[C@H]1CN2CC[C@H]1C[C@H]2[C@H](O)c1ccnc2ccc(OC)cc12,Potency,[19],"inconclusive: 54.9 µM [activator, single point]"
same,Potency,[16],"inconclusive: 54.9 µM [activator, single point]"
same,Potency,[18],"inconclusive: 38.6 µM [cytotoxic, partial curve]"
same,Potency,[20],"inconclusive: 24.3 µM [cytotoxic, partial curve]"
same,Potency,[9],"inconclusive: 34.4 µM [cytotoxic, partial curve]"
CO[Si](CCCNCCN)(OC)OC,Potency,[17],inactive
same,Potency,[18],active: 5.53 µM
CCCCOC(=O)CC(CC(=O)OCCCC)(OC(C)=O)C(=O)OCCCC,Potency,[14],"active: 7.78 µM and inconclusive: 30.6 µM [cytotoxic, full curve, poor fit]"
same,Potency,[12],"inconclusive: 0.0028 µM [rising, full curve, poor fit]"
same,Potency,[20],"inconclusive: 55.1 µM [cytotoxic, single point]"
O=CN1CCCCC1,Potency,[6],inactive
same,Potency,[11],inactive
CCOC(=O)OC(C)OC1=C(C(=O)Nc2ccccn2)N(C)S(=O)(=O)c2ccccc21 (stereo not given),Potency,[13],inactive
same,Potency,[3],inactive
CC(=O)CC(=O)OC(C)(C)C,Potency,[14],inactive
same,Potency,[13],"inconclusive: 54.9 µM [rising, single point]"
same,Potency,[3],inactive
same,Potency,[11],inactive
same,Potency,[5],"inconclusive: 21.9 µM [activator, partial curve, poor fit]"

# Source: PubChem BioAssay (Tox21)
